# Source: PMC12136788
# Some of the results follow.
# B1: chr1:153634984:153634985:-_ENSG00000143621_ENST00000361891|hu_hu|motif|central (ssRNA)
# RNA: GGGAGUUCUACAGUCCGACGAUCUUCCUCUCCUUCCUUCUUCUCUGGUGGCUUCUCAUAAGCCUUUUCUGAAGGUGUUACGGUCACUCCAUCCCAGGUAGAUAUUUCAGAAGCAAGAUAGCUGGCAUCACCCUCCUGGCCAAGCAACAGAGGAUUGAGCAUCA
# B2: chr10:60036935:60036936:+_ENSG00000122873_ENST00000333926|hu_mus|FALSE|FALSE (ssRNA)
# RNA: GGGAGUUCUACAGUCCGACGAUCCUGAAGAUUCACCAUAGCUUUGGUGCGAUUCUCUUUAGCGUAGAACUUCUUGUAAGCCAGGUAACCGAGAGCGGCUGUGCCAGCAGCAAAGGUGACGGCCGCGAUCCACUCAACUCGCACCAACAGAGGAUUGAGCAUCA
# B3: chr1:58468927:58468928:-_ENSMUSG00000026034_ENSMUST00000148330|mus_mus|mus_mus_mus_hu_False|68_108 (ssRNA)
# RNA: GGGAGUUCUACAGUCCGACGAUCAAUCUAUAAUUACGAUGUUCAUUACCUUAGCUAUGUACUUAAUUUAAUAAAGCACCCAAACAAAAUAAACAUGGCAAUAUAAAAAUGUUAAGAAUUUACAAAGCUGUACAAAAUAACUUACAACAGAGGAUUGAGCAUCA
# B4: chr2:228221723:228221724:+_ENSG00000168958_ENST00000354503|hu_mus|motif|central (ssRNA)
# RNA: GGGAGUUCUACAGUCCGACGAUCGACCAUUUCUCUUUUAGCACGCUCUUUAUUCUCCUCUUCCAGAAGUUGGAGACGUCGGUUUAAUUUGAUUAUCUGACGUCUUAAUGAAGCUGCAUCUACCACAGUCAUGUCAUCUGAAGCCAACAGAGGAUUGAGCAUCA
# B5: 34018048_34018168_882_CDS_ENSMUSG00000039485_ENSMUST00000047935|mouse|control|control (ssRNA)
# RNA: GGGAGUUCUACAGUCCGACGAUCUCUUGGCUGCUUAAGCUCCUCCACCUCUAAAUUGAUCAUGUACCUCAUCAUGUCUUCAUCUUGGCCACUAAUCAUUGGUGACAGCUGGGGGUGGUUCCGAAAAGCGGUGACCCAGAAACCCAACAGAGGAUUGAGCAUCA
# B6: chr7:141441981:141441982:+_ENSG00000106028_ENST00000265304|hu_mus|hu_hu_hu_mus_False|18_88 (ssRNA)
# RNA: GGGAGUUCUACAGUCCGACGAUCCUCAUGUCUUACAAACUGACGAAGUACCUGUAACACAGGUCUUCGAAACAUGGCUUCUGUUUUUCUUACAACCUAAUCUUUAGGCUUUUCCUACCUGACGAUCAGAAAAGAGAAAAAUGACAACAGAGGAUUGAGCAUCA
# B7: chr1:93301758:93301759:+_ENSG00000122406_ENST00000370321|hu_hu|FALSE|FALSE (ssRNA)
# RNA: GGGAGUUCUACAGUCCGACGAUCGUAUUCAUCACCAGUCACCUCCACUUGGCCUUCAUAGAUCUUGUCCAUGCCAAACCUAUUGAGAAGCCUGCGGGCCAGCAGCAGGCCAGUACAAUAUGCUGCAGCAUAAUUUGUCAGGCCCAACAGAGGAUUGAGCAUCA
# B8: chr12:32625335:32625336:-_ENSMUSG00000002996_ENSMUST00000172314|mus_mus|FALSE|FALSE (ssRNA)
# RNA: GGGAGUUCUACAGUCCGACGAUCUGGAUAUUCUUGAUGAGAUACAUCUGAACUUAGCUGGUAUAUGGCAGAUUGGGUAGGGUCACUUUGAACAGCCUGAAGUUCAGGAAGGUCAUCAAGCUCCAUGUGCUCAUCACAGGAGUUCAACAGAGGAUUGAGCAUCA
# B9: chr6:51417264:51417265:-_ENSMUSG00000004980_ENSMUST00000090002|mus_hu|FALSE|FALSE (ssRNA)
# RNA: GGGAGUUCUACAGUCCGACGAUCAAGAGCUUACGGAACUGUUCCUUUUCUCUCUUUUUCCUCUCCAAAGGAACAGUUUCUAAAGUUUUCUCCAUCGCGGACUCAGUCGCUUCAGCCCGAUUUCCCGCAGCCGAGCGAGAUGAGCAACAGAGGAUUGAGCAUCA
# B10: chrX:16870723:16870724:-_ENSG00000102054_ENST00000404022|hu_mus|motif|central (ssRNA)
# RNA: GGGAGUUCUACAGUCCGACGAUCCUUAUGCGAUUCAAAGGUGUGGAGUUUUAGUUUCAGAUUACGCAGGUCCCAUAAAGCGGCAGUCUUAUCUGCAGAGCCAGUUGCCAGAAUGAACUCGCUGUAGGGAUUGAAUGAGAGGCACAACAGAGGAUUGAGCAUCA
# B11: chr9:24234919:24234920:-_ENSMUSG00000043067_ENSMUST00000142064|mus_mus|motif|central (ssRNA)
# RNA: GGGAGUUCUACAGUCCGACGAUCGUAAACCAACUCUCCAUGUUCAAAUUGUUGUUUUCUUGUAUGUGUCCGUUGUUUAGCGGCGACACCCCGCAUAUCAUUAAAAAUCUUUCUAACAAUGGCAGCGACGGUGACCAGAACCACCAACAGAGGAUUGAGCAUCA
# B12: chr9:101115835:101115836:-_ENSMUSG00000043154_ENSMUST00000075941|mus_mus|FALSE|FALSE (ssRNA)
# RNA: GGGAGUUCUACAGUCCGACGAUCUGUCAGAUAAACCUUAGUUGAUGGUACAGGAUUACUGUGAUAACUGAGUCCUCCCAGGCCUUAAGUGAUCCAUUUUUUUUUUUUUUUUUUUUUUUGGUGGGCGACAGAGAAACCUCAGUGCAACAGAGGAUUGAGCAUCA
# B13: chr4:144461564:144461565:+_ENSG00000153147_ENST00000283131|hu_hu|FALSE|FALSE (ssRNA)
# RNA: GGGAGUUCUACAGUCCGACGAUCCCUCCCUUGUUGAAUGACUAUUGAAUCCAGUCUGAGUUUCAUCUCAGCACGUUCUACUAUUCUUUCUUCUACAGUGUUAUCAGUUAUAAAGCGGAACACUCUGACUGUCUUAGUCUGCCCCAACAGAGGAUUGAGCAUCA
# B14: chr2:201680209:201680210:+_ENSG00000082153_ENST00000409600|hu_hu|FALSE|FALSE (ssRNA)
# RNA: GGGAGUUCUACAGUCCGACGAUCGUCAUCUGCCAGUGUACCACCUGGGGCCAGCAUUCCACCAGCCACCAGAAUGUCAAAGAGUGUUUCUGCAUAUCGACGGUAAUCAAGUUUUGCUCCAGAAGCAUCAAGAAACUUAGCUACCAACAGAGGAUUGAGCAUCA
# Biological target: T1, UNK ZnF1-3 (human, UniProt Q9C0B0 31-174)
# T1 sequence: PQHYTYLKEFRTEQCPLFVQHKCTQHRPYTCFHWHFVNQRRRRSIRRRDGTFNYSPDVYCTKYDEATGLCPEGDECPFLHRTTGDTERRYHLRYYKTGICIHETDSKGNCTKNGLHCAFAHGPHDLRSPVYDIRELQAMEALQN
# Assay: nsRBNS (natural sequence RNA bind-n-seq); RBNS binding buffer (assumed for nsRBNS): 25 mM Tris pH 7.5, 150 mM KCl, 3 mM MgCl2, 0.01% Triton X-100, 500 ug/ml BSA, 20 U/ml SUPERase-In, 4 C; UNK is unkempt and MSI1 is Musashi-1; names of the RNAs are library labels; protein concentration not given here; high values mean tight binding
row,Binder,binding signal [enrichment R]
1,B1,1.07
2,B2,0.938
3,B3,0.792
4,B4,0.719
5,B5,1.2
6,B6,0.616
7,B7,0.75
8,B8,0.618
9,B9,0.4
10,B10,1.25
11,B11,0.874
12,B12,0.924
13,B13,0.797
14,B14,0.782
